# Assay results: PMC4336329 (PLoS ONE, 2015)
# Screen size: about 310,000 compounds; about 2,200 (0.71%) showed an effect of 50% or more. Effects have a minus sign here. Some of the results follow.
# Target: human ether-à-go-go-related gene (hERG) potassium channel (human, UniProt Q12809)
# Assay: primary screen, population patch clamp on CHO cells stably expressing hERG
# human ether-à-go-go-related gene (hERG) potassium channel, sequence (Q12809 whole entry, looked up): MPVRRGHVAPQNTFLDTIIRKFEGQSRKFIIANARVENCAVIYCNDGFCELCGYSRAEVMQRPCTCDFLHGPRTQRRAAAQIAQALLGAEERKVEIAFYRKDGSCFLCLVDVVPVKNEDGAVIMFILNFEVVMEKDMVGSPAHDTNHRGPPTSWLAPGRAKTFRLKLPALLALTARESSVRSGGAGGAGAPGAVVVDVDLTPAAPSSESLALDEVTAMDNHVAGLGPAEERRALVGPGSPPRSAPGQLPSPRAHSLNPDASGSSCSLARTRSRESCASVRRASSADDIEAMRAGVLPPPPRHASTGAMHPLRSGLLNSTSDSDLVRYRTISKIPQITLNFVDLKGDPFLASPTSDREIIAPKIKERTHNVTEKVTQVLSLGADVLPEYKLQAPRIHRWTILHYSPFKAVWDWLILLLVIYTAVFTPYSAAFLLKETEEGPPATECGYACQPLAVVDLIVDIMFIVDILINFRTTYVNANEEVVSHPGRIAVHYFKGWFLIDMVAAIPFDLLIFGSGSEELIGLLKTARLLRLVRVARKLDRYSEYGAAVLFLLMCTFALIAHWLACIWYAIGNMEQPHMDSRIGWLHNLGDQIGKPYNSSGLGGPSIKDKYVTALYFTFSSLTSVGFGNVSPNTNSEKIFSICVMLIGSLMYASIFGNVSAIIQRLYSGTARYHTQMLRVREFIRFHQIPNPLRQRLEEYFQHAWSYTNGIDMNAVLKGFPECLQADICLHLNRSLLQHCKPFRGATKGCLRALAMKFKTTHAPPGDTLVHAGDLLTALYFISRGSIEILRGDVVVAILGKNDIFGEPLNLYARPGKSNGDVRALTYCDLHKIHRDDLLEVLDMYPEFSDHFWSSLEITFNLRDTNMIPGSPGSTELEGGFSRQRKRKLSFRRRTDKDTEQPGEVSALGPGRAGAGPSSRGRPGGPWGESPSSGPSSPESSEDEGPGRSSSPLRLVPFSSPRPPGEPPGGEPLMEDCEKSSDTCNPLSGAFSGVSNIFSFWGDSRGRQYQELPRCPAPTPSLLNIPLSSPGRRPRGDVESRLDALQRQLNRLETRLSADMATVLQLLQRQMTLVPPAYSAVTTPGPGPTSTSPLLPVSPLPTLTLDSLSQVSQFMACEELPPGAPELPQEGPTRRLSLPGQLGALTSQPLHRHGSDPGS
row,Compound,"hERG current change (%, negative = inhibition) at 1uM"
1,Cc1ccc(C2=NC3(CCCCCC3)NC2=S)cc1,-0.801%
2,COc1ccc(-c2ccc(OC)c([C@H]3[C@@H]4C=CCC[C@@]4(C)C(=O)N3Cc3ccccc3)c2)cc1OC,12.7%
3,Fc1ccc(F)c(C2=NNC(=Nc3ccccc3F)SC2)c1,31.5%
4,COc1ccc2oc(C(F)(F)C(F)(F)F)cc(=O)c2c1,14.3%
5,CN(C)/C=C1\Oc2ccc3ccccc3c2C1=O,12.4%
6,CCOC(=O)C1CCN(c2c(NCc3ccc(C(=O)N(C)Cc4ccccc4)cc3)c(=O)c2=O)CC1,12.4%
7,COC(=O)C(C)n1cnc2c(cnn2-c2ccc(Cl)cc2)c1=O (stereo not shown),-9.92%
8,NS(=O)(=O)c1ccc(NC(=O)N2c3ccccc3Sc3ccccc32)cc1,11.2%
9,CCN(CC(=O)Nc1ccc(NC(C)=O)cc1)C(=O)CCCc1c[nH]c2ccccc12,11.5%
10,COc1ccc(CNC(=O)C2C3C=CC4(CN(Cc5cccnc5)C(=O)C24)O3)cc1 (stereo not shown),4.2%
11,O=C(NCC(c1cccnc1)N1CCN(c2ccccc2)CC1)C1CCCCC1 (stereo not shown),-0.22%
12,O=C(NCCN1CCCC1=O)C1CCC(=O)N(CCc2cccc(F)c2)C1 (stereo not shown),11.8%
13,O=C1CC(c2ccccc2)CC(O)=C1C=Nc1ccccc1O (stereo not shown),12.6%
14,COc1ccc(NC(=S)NCCCN2CCCC2=O)c(OC)c1,11.6%
15,Cc1cnc(NC(=O)Nc2ccccc2)c(C)n1,6.05%
16,O=C(CCOc1ccccc1)Nc1nnc(-c2ccc3c(c2)OCCO3)o1,16.1%
17,NC(=O)c1cccc(CS(=O)(=O)c2ccc(Cl)cc2)c1,8.96%
18,Cc1nonc1C1CCCN1Cc1cn[nH]c1-c1ccc2c(c1)OCO2 (stereo not shown),-7.9%
19,COc1ccc(S(=O)(=O)N2CCC(C(=O)NCc3ccccc3)CC2)cc1OC,13.7%
20,CCCN(Cc1cc2cc(C)ccc2[nH]c1=O)C(=O)c1ccccn1,7.13%
21,C/C(=N\NC(=O)COc1cccc(Br)c1)c1ccc2c(c1)OCCO2,12.5%
22,C=CCNc1ncnc2c1cnn2-c1ccc(OC)cc1,18.8%

row,Compound,"hERG current change (%, negative = inhibition) at 1uM"
1,O=C(Nc1cccc(Cl)c1N1CCOCC1)c1cccnc1,-12.7%
2,C/C(=N\NC(=O)c1nc2ccccn2c1C)c1cccc([N+](=O)[O-])c1,-5.4%
3,CC(C)(C)c1ccc(-n2ncc3c2CCCC3NC(=O)C2(C(N)=O)CC2)cc1 (stereo not shown),8.44%
4,C=CCNC(=O)C(=O)NCC(c1ccc2c(c1)OCO2)N1CCN(c2ccc(F)cc2)CC1 (stereo not shown),5.04%
5,COc1cccc(CN2CCN(CCCc3ccccc3)C(CCO)C2)c1O (stereo not shown),-41.8%
6,Cc1ccc2nc(C3CCN(CC(=O)Nc4ccc5c(c4)OCCO5)CC3)[nH]c2c1,-18.6%
7,O=[N+]([O-])c1cccc(S(=O)(=O)NC2CC3CCC2C3)c1 (stereo not shown),12.8%
8,Cc1ccc(NC(=O)Cc2noc3ccccc23)c(C)c1,10.6%
9,O=S(Cc1cc(Sc2ccccc2)nc(-c2ccccc2)n1)c1ccccc1 (stereo not shown),7.66%
10,CCCCn1c(O)c(C(=O)/C=C/c2ccc3c(c2)OCO3)c(=O)[nH]c1=O,11.9%
11,O=C(Cc1c(O)c2ccccc2[nH]c1=O)NC1CCCCCC1,14.5%
12,Cc1ccc(NS(=O)(=O)c2ccc(NC(=O)c3ccc(Br)o3)cc2)c(C)c1,15.2%
13,CCCCCCn1c(SCCC)nc2c1c(=O)[nH]c(=O)n2C,9.91%
14,O=C(CN1CCCC1)Nc1ccc(F)cc1,16.6%
15,COc1ccc(CN2CCC(CO)(CCOc3ccccc3)CC2)c(OC)c1C,-81.6%
16,Br.CCn1c(=N)n(CC(=O)c2ccco2)c2ccccc21,9.28%
17,NC(N)=O,14.9%
18,O=C(OCc1ccc2c(c1)OCO2)c1cccc(S(=O)(=O)N2CCCCC2)c1,12%
19,Cc1nc(SCn2nnc3ccccc3c2=O)nc(C)c1C,-2.99%
20,CC(C)[C@H](NC(=O)c1ccccc1Br)C(=O)OCc1nc2ccsc2c(=O)[nH]1,1.28%
21,O=C(Cn1ccc(C(F)(F)F)n1)NNC(=O)c1ccco1,9.22%
22,COc1cc(-c2nnc(NC(=O)CCS(=O)(=O)c3ccc(F)cc3)o2)cc(OC)c1OC,9.06%

row,Compound,"hERG current change (%, negative = inhibition) at 1uM"
1,CCn1c(C)nc2c(=O)oc3ccccc3c21,3.07%
2,Cc1ccc(C)c(NC(=O)COC(=O)CNC(=O)c2ccccc2Cl)c1,9.98%
3,COc1ccc(CNC(=O)CCn2c(=O)oc3ccccc32)c(OC)c1,8.51%
4,COc1ccc(Sc2nnc(-c3ccccc3)cc2C#N)cc1,14.6%
5,Cc1cc(C)cc(Nc2ncc3c(n2)CC(c2ccco2)CC3=O)c1 (stereo not shown),4.76%
6,C(=C\c1nc2ccccc2[nH]1)/c1ccccc1,-4.37%
7,COc1ccccc1/C=N/NC(=O)c1ccc(C)nc1,11.9%
8,CC1(C)CC(=O)C2=C(C1)Nc1ccccc1NC2c1cccs1 (stereo not shown),12.9%
9,C=CCn1c(SCC(=O)Nc2ccccc2C)nc(O)cc1=O,6.15%
10,Cc1ccc(NC(=O)c2cccc(S(=O)(=O)N3CCN(c4ccccc4)CC3)c2)nc1,-2.21%
11,O=C(NCCc1ccc(O)c(O)c1)C1COc2ccccc2O1 (stereo not shown),13.3%
12,COc1ccc([C@H](OC)[C@@]2(Cc3ccc(O)cc3)N=C(N)N(C)C2=O)cc1,10.7%
13,C=CCc1cccc(C=Nc2ccc(Br)cc2)c1O,2.49%
14,COc1cccc(C(=O)N(Cc2nc(-c3cccc(C)c3)no2)C(C)C)c1OC,13.6%
15,COc1ccccc1NC(=O)C1=C(C)NC2=C(C(=O)CC(c3ccc(OC)c(OC)c3)C2)C1c1coc2ccccc2c1=O (stereo not shown),4.43%
16,Cc1nnc(SCC(=O)Nc2ccc3c(c2)COC3=O)n1-c1ccccc1,5.8%
17,Cc1ccc(Oc2ccccc2NC(=O)CN2C(=O)NC3(CCCC3)C2=O)cc1,10.3%
18,COc1ccc(Br)cc1CN1CCN(C(=O)c2ccc(OC)c(OC)c2)CC1.O=C(O)C(=O)O,-4.77%
19,O=C(NCCc1ccc(Cl)cc1)c1n[nH]c2ccccc12,12.2%
20,Brc1ccc(OCCCCCN2CCOCC2)cc1.O=C(O)C(=O)O,-18.3%
21,COc1ccc(-n2ccnc2SCC(=O)NCc2ccc3c(c2)OCO3)cc1,2.14%
22,COc1ccccc1OCC(=O)NC1CCCc2ccccc21 (stereo not shown),13.2%

row,Compound,"hERG current change (%, negative = inhibition) at 1uM"
1,CNNC(=S)Nc1ccc(Cl)cc1,-1.94%
2,CC(C)(C)NS(=O)(=O)c1ccc(NC(=O)c2cc(-c3ccccc3)nc3ccccc23)cc1,-11.2%
3,CCN(CC)S(=O)(=O)c1ccc(N2CCOCC2)c(NC(=O)c2cccc3c(=O)c(C)c(-c4ccccc4)oc23)c1,1.3%
4,Cc1c(C(=O)NCCC2=CCCCC2)cccc1[N+](=O)[O-],11.3%
5,Cc1ccc2c(c1)C(c1ccccc1)N(C(=O)c1ccccc1)CC(=O)N2 (stereo not shown),8.26%
6,CN(C)S(=O)(=O)c1ccc(N2CCCC2)c(C(=O)Nc2ccc(F)cc2F)c1,-21.8%
7,CN(CC(=O)NCC1CCCCC1)CC(=O)Nc1ccccc1Br,-8.15%
8,O=C(Nc1c2c(nn1-c1cccc(Cl)c1)CS(=O)(=O)C2)c1cccs1,5.14%
9,NC(=O)c1ccc(N2CCN(c3ccccc3O)CC2)c([N+](=O)[O-])c1,2.22%
10,CN(C)C(CNC(=O)c1ccccc1OCc1ccc(Cl)cc1)c1ccco1 (stereo not shown),-2.35%
11,Cc1cc(OCCCN2CCN(Cc3ccccc3)CC2)ccc1[N+](=O)[O-].O=C(O)C(=O)O,-52.5%
12,CC(=O)c1ccc2c(c1)OCO2,9.93%
13,CCN(CC)Cc1c(C(=O)N/N=C/c2cccs2)nnn1-c1nonc1N,-6.62%
14,CN(Cc1ccccc1Br)C(=O)CN1C(=O)NC2(CCCCCC2)C1=O,8.24%
15,O=C1CC(c2ccc(Cl)cc2)c2c(O)cc(O)cc2O1 (stereo not shown),16.1%
16,COc1ccc(C2SCC(=O)Nc3c2c(C)nn3C2CCOC(C)(C)C2)cc1OC (stereo not shown),5.5%
17,COc1ccc(OC)c(NC(=O)c2cc3n(n2)C(C(F)(F)F)CC(c2ccc4c(c2)OCO4)N3)c1 (stereo not shown),5.75%
18,NC(=O)c1ccc[n+](CC(=O)NCc2ccc(Cl)cc2)c1.[Cl-],9.65%
19,OC(C#CCN1CCCCC1)(c1ccccc1)c1ccccc1,-4.27%
20,CSc1nc2nc3c(cc2c(=O)n1-c1ccccc1C)COC(C)(C)C3,-0.995%
21,Cc1ccc(C2=NOC(C)(c3nnc(-c4ccncc4)o3)C2)cc1 (stereo not shown),10.5%
22,CCOC(=O)Cn1nc(C)n(-c2ccccc2)c1=O,-13.3%
